Experimental data as given in the supplement of paper PMC10369915.
Some of the results follow. No stated cut-off is given here; in the data, active = 3.2 or more and inactive = the rest. Most of these values are background signal.

What was measured:
Assay in all cases: enrichment score (SH2-bound / input frequency) (ratio); bacterial display of known human phosphotyrosine sites (pTyr-Var adds point mutants) read by sequencing; higher = stronger binding; tyrosines were phosphorylated by kinases first
Conditions in all cases: peptide library: pTyr-Var
SHP2 C-SH2 domain E139D = target: SHP2 C-SH2 domain E139D
[1] = target: SHP2 C-SH2 domain wild-type
SHP2 N-SH2 domain L43F = target: SHP2 N-SH2 domain L43F
SHP2 N-SH2 domain T42A = target: SHP2 N-SH2 domain T42A
SHP2 N-SH2 domain T52S = target: SHP2 N-SH2 domain T52S
[2] = target: SHP2 N-SH2 domain wild-type

Measured: enrichment score
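Further: displayed peptides selected on beads carrying the immobilized SH2 domain, with library peptides lacking any tyrosine serving as negative controls.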

TAALWYIYSHT [ENG_Y612]
inactive: SHP2 C-SH2 domain E139D 1.62 | [1] 1.57 | SHP2 N-SH2 domain L43F 2.3 | SHP2 N-SH2 domain T42A 1.27 | SHP2 N-SH2 domain T52S 1.7 | [2] 1.56

TAALWYIYLHT [ENG_Y612_S615L]
inactive: SHP2 C-SH2 domain E139D 0.92 | [1] 1.27 | SHP2 N-SH2 domain L43F 1.1 | SHP2 N-SH2 domain T42A 0.932 | SHP2 N-SH2 domain T52S 0.781 | [2] 1.19

INNKMYDPKMN [ENPP1_Y280_D276N]
inactive: SHP2 C-SH2 domain E139D 0.86 | [1] 0.62 | SHP2 N-SH2 domain L43F 0.728 | SHP2 N-SH2 domain T42A 0.659 | SHP2 N-SH2 domain T52S 0.724 | [2] 0.685

FAAAGYGSLEA [EPHA10_Y959]
inactive: SHP2 C-SH2 domain E139D 0.692 | [1] 0.695 | SHP2 N-SH2 domain L43F 0.808 | SHP2 N-SH2 domain T42A 0.682 | SHP2 N-SH2 domain T52S 0.675 | [2] 0.703

EFGEVYKGMLK [EPHA2_Y628]
inactive: SHP2 C-SH2 domain E139D 0.538 | [1] 0.696 | SHP2 N-SH2 domain L43F 0.472 | SHP2 N-SH2 domain T42A 0.506 | SHP2 N-SH2 domain T52S 0.726 | [2] 0.621

LTVVIYVLVGR [EPHA3_Y561_I564V]
inactive: SHP2 C-SH2 domain E139D 0.622 | [1] 0.584 | SHP2 N-SH2 domain L43F 0.287 | SHP2 N-SH2 domain T42A 0.512 | SHP2 N-SH2 domain T52S 0.608 | [2] 0.247

DPEAAYTTRGG [EPHA3_Y779]
inactive: SHP2 C-SH2 domain E139D 0.326 | [1] 0.362 | SHP2 N-SH2 domain L43F 0.32 | SHP2 N-SH2 domain T42A 0.361 | SHP2 N-SH2 domain T52S 0.4 | [2] 0.444

DPEGAYTTRGG [EPHA3_Y779_A777G]
inactive: SHP2 C-SH2 domain E139D 0.359 | [1] 0.511 | SHP2 N-SH2 domain L43F 0.388 | SHP2 N-SH2 domain T42A 0.506 | SHP2 N-SH2 domain T52S 0.323 | [2] 0.522

FTGVEYSSCDT [EPHA3_Y937]
inactive: SHP2 C-SH2 domain E139D 0.759 | [1] 0.935 | SHP2 N-SH2 domain L43F 0.961 | SHP2 N-SH2 domain T42A 2.36 | SHP2 N-SH2 domain T52S 0.757 | [2] 0.704

FMGVEYSSCDT [EPHA3_Y937_T933M]
inactive: SHP2 C-SH2 domain E139D 0.782 | [1] 1.08 | SHP2 N-SH2 domain L43F 1.01 | SHP2 N-SH2 domain T42A 2.2 | SHP2 N-SH2 domain T52S 0.653 | [2] 1.12

SVKVYYKKCWS [EPHA7_Y202]
inactive: SHP2 C-SH2 domain E139D 0.622 | [1] 0.976 | SHP2 N-SH2 domain L43F 0.622 | SHP2 N-SH2 domain T42A 0.549 | SHP2 N-SH2 domain T52S 0.509 | [2] 1.12

SVKVYYKKCWF [EPHA7_Y202_S207F]
inactive: SHP2 C-SH2 domain E139D 0.55 | [1] 0.8 | SHP2 N-SH2 domain L43F 0.717 | SHP2 N-SH2 domain T42A 0.626 | SHP2 N-SH2 domain T52S 0.552 | [2] 0.909

LAEMNYVHQDL [EPHB1_Y740_R743Q]
inactive: SHP2 C-SH2 domain E139D 0.619 | [1] 0.584 | SHP2 N-SH2 domain L43F 0.755 | SHP2 N-SH2 domain T42A 0.738 | SHP2 N-SH2 domain T52S 0.799 | [2] 0.722

AVRVFYRKCPR [EPHB2_Y194]
inactive: SHP2 C-SH2 domain E139D 0.26 | [1] 0.242 | SHP2 N-SH2 domain L43F 0.291 | SHP2 N-SH2 domain T42A 0.204 | SHP2 N-SH2 domain T52S 0.247 | [2] 0.255

LADMNYVHCDL [EPHB2_Y742_R745C]
inactive: SHP2 C-SH2 domain E139D 0.97 | [1] 1.23 | SHP2 N-SH2 domain L43F 1.11 | SHP2 N-SH2 domain T42A 0.837 | SHP2 N-SH2 domain T52S 1.16 | [2] 1.3

RTMPDYTSFNT [EPHB2_Y912_I909M]
inactive: SHP2 C-SH2 domain E139D 1.06 | [1] 0.741 | SHP2 N-SH2 domain L43F 0.515 | SHP2 N-SH2 domain T42A 0.657 | SHP2 N-SH2 domain T52S 0.662 | [2] 0.968

EKLQQYIAPGM [EPHB3_Y600]
inactive: SHP2 C-SH2 domain E139D 1.07 | [1] 1.05 | SHP2 N-SH2 domain L43F 0.924 | SHP2 N-SH2 domain T42A 0.875 | SHP2 N-SH2 domain T52S 0.933 | [2] 1.07

EKLQQYLAPGM [EPHB3_Y600_I601L]
inactive: SHP2 C-SH2 domain E139D 0.846 | [1] 0.844 | SHP2 N-SH2 domain L43F 0.99 | SHP2 N-SH2 domain T42A 0.587 | SHP2 N-SH2 domain T52S 0.9 | [2] 0.797

DKHGQYLIGHG [EPHB4_Y581]
inactive: SHP2 C-SH2 domain E139D 1.03 | [1] 1.15 | SHP2 N-SH2 domain L43F 0.755 | SHP2 N-SH2 domain T42A 0.655 | SHP2 N-SH2 domain T52S 0.965 | [2] 0.989

EKHGQYLIGHG [EPHB4_Y581_D576E]
inactive: SHP2 C-SH2 domain E139D 1.22 | [1] 0.825 | SHP2 N-SH2 domain L43F 0.864 | SHP2 N-SH2 domain T42A 0.792 | SHP2 N-SH2 domain T52S 0.785 | [2] 0.808

HGAKVYIDPFT [EPHB4_Y590_T587A]
inactive: SHP2 C-SH2 domain E139D 0.871 | [1] 0.811 | SHP2 N-SH2 domain L43F 0.585 | SHP2 N-SH2 domain T42A 1.27 | SHP2 N-SH2 domain T52S 0.811 | [2] 1.35

ERMKVYVPTGF [EPHX1_Y393]
inactive: SHP2 C-SH2 domain E139D 0.878 | [1] 0.82 | SHP2 N-SH2 domain L43F 0.893 | SHP2 N-SH2 domain T42A 0.774 | SHP2 N-SH2 domain T52S 0.802 | [2] 0.804

KRPAVYIDEEA [EPM2A_Y304]
inactive: SHP2 C-SH2 domain E139D 0.997 | [1] 0.726 | SHP2 N-SH2 domain L43F 0.885 | SHP2 N-SH2 domain T42A 0.841 | SHP2 N-SH2 domain T52S 0.647 | [2] 0.804

VDTFWYKFLKR [EPM2A_Y86]
inactive: SHP2 C-SH2 domain E139D 0.687 | [1] 0.55 | SHP2 N-SH2 domain L43F 0.575 | SHP2 N-SH2 domain T42A 0.384 | SHP2 N-SH2 domain T52S 0.436 | [2] 0.637

VDTLWYKFLKR [EPM2A_Y86_F84L]
inactive: SHP2 C-SH2 domain E139D 0.792 | [1] 0.747 | SHP2 N-SH2 domain L43F 0.564 | SHP2 N-SH2 domain T42A 0.678 | SHP2 N-SH2 domain T52S 0.733 | [2] 0.768

VDTFWYKLLKR [EPM2A_Y86_F88L]
inactive: SHP2 C-SH2 domain E139D 0.465 | [1] 0.582 | SHP2 N-SH2 domain L43F 0.579 | SHP2 N-SH2 domain T42A 0.517 | SHP2 N-SH2 domain T52S 0.493 | [2] 0.646

VDTFWYKFLKP [EPM2A_Y86_R91P]
inactive: SHP2 C-SH2 domain E139D 0.904 | [1] 0.744 | SHP2 N-SH2 domain L43F 0.854 | SHP2 N-SH2 domain T42A 0.863 | SHP2 N-SH2 domain T52S 0.731 | [2] 0.945

LSDGPYSNPYE [EPOR_Y485]
inactive: SHP2 C-SH2 domain E139D 0.31 | [1] 0.737 | SHP2 N-SH2 domain L43F 0.527 | SHP2 N-SH2 domain T42A 0.84 | SHP2 N-SH2 domain T52S 0.989 | [2] 0.155

PYSNSYENSLI [EPOR_Y489_P488S]
inactive: SHP2 C-SH2 domain E139D 1.71 | [1] 1.44 | SHP2 N-SH2 domain L43F 1.7 | SHP2 N-SH2 domain T42A 1.29 | SHP2 N-SH2 domain T52S 1.24 | [2] 1.62

AFDNLYFWDQD [ERBB2_Y1221_YF]
inactive: SHP2 C-SH2 domain E139D 1.07 | [1] 1.06 | SHP2 N-SH2 domain L43F 1.06 | SHP2 N-SH2 domain T42A 0.749 | SHP2 N-SH2 domain T52S 0.887 | [2] 0.893

ILDEAYVMAGA [ERBB2_Y772_V777A]
inactive: SHP2 C-SH2 domain E139D 0.95 | [1] 0.723 | SHP2 N-SH2 domain L43F 0.896 | SHP2 N-SH2 domain T42A 0.661 | SHP2 N-SH2 domain T52S 0.941 | [2] 0.879

QYNMQYSSSAA [ERBB2IP_Y981_I979M]
inactive: SHP2 C-SH2 domain E139D 1.01 | [1] 1.01 | SHP2 N-SH2 domain L43F 1.47 | SHP2 N-SH2 domain T42A 1.12 | SHP2 N-SH2 domain T52S 0.78 | [2] 1.23

HGDSAYHSQRH [ERBB3_Y1132_R1127H]
inactive: SHP2 C-SH2 domain E139D 1.28 | [1] 1.5 | SHP2 N-SH2 domain L43F 0.955 | SHP2 N-SH2 domain T42A 1.05 | SHP2 N-SH2 domain T52S 1.07 | [2] 1.23

DEEEEYEYMNR [ERBB3_Y1197_D1194E]
inactive: SHP2 C-SH2 domain E139D 0.327 | [1] 0.558 | SHP2 N-SH2 domain L43F 0.481 | SHP2 N-SH2 domain T42A 0.374 | SHP2 N-SH2 domain T52S 0.452 | [2] 0.465

DEEEEYEFMNR [ERBB3_Y1197_D1194E_YF]
inactive: SHP2 C-SH2 domain E139D 0.509 | [1] 0.619 | SHP2 N-SH2 domain L43F 0.453 | SHP2 N-SH2 domain T42A 0.54 | SHP2 N-SH2 domain T52S 0.497 | [2] 0.411

DEDEEYEFMNR [ERBB3_Y1197_YF]
inactive: SHP2 C-SH2 domain E139D 0.407 | [1] 0.387 | SHP2 N-SH2 domain L43F 0.329 | SHP2 N-SH2 domain T42A 0.372 | SHP2 N-SH2 domain T52S 0.41 | [2] 0.395

GPGGDYAAMGA [ERBB3_Y1276]
inactive: SHP2 C-SH2 domain E139D 0.554 | [1] 0.457 | SHP2 N-SH2 domain L43F 0.58 | SHP2 N-SH2 domain T42A 0.47 | SHP2 N-SH2 domain T52S 0.662 | [2] 0.579
